The campaign covered roughly 310,000 compounds. About 14,000 (4.5%) showed an effect of 50% or more. Effects have a minus sign here. The list shows a part of the results.
target: human ether-à-go-go-related gene (hERG) potassium channel (human, UniProt Q12809); experiment: primary screen, population patch clamp on CHO cells stably expressing hERG
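Also: peak tail current of the secondary pulse compared with the same well before compound.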

Sequence of human ether-à-go-go-related gene (hERG) potassium channel (Q12809 whole entry, looked up): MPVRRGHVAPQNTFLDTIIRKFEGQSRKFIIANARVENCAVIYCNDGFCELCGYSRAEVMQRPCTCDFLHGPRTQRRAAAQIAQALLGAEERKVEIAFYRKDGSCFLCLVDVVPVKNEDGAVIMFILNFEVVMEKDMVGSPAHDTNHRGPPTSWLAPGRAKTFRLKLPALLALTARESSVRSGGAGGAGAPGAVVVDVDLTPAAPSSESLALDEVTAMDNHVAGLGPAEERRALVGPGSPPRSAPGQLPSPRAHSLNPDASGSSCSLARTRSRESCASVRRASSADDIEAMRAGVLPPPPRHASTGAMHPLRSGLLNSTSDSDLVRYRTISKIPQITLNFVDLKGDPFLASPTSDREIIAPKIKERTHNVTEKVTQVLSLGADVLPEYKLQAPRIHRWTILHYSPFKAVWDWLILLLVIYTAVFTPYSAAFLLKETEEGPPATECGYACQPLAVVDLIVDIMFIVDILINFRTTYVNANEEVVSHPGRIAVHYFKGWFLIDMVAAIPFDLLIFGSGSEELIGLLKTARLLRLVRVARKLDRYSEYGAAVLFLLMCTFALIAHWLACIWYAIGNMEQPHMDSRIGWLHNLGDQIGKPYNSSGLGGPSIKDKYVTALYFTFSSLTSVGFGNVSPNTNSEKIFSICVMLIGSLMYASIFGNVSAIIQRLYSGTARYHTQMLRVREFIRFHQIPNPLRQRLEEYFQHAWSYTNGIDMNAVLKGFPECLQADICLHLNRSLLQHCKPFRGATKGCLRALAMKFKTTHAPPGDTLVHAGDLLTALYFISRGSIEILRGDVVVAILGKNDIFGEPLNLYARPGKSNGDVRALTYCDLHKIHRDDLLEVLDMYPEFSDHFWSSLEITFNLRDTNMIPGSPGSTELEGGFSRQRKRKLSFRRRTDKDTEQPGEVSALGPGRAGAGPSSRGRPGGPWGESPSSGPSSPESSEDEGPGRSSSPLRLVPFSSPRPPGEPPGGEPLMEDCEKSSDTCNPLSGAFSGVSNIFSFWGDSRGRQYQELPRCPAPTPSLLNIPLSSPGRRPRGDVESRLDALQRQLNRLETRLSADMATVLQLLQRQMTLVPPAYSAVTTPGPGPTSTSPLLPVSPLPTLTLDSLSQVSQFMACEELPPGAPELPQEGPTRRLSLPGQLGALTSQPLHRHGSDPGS

| Compound | hERG current change (%, negative = inhibition) at 10uM |
| --- | --- |
| Cc1cc(NC(=O)CSc2nc(C3CCCCC3)nc3ccccc23)no1 | 18.9% |
| O=c1[nH]n(-c2cccc3cccnc23)c(=O)c2ccccc12 | -11.5% |
| Cc1sc2ncn(CC(=O)Nc3c(F)cccc3F)c(=O)c2c1S(=O)(=O)N1CCC(C)CC1 | 7.07% |
| CNCc1c(OCc2ccccc2F)ccc2ccccc12.Cl | -63.5% |
| Cc1cccn2c(=O)c3cc(C#N)c(=NC(=O)c4cccs4)n(CCCOC(C)C)c3nc12 | -80.7% |
| Cc1cccc(-c2noc(C3CCCCC3)n2)c1 | 9.7% |
| CCN1CCN(c2ccc(NC(=O)c3ccco3)cc2)CC1 | 8.62% |
| Cl.N[C@@H](Cc1ccccc1)C(=O)N1CCC(C(=O)N[C@@H](CCC(=O)O)C(=O)O)CC1 | 7.18% |
| Cc1ccc(C)c(NC2=CC(=O)CC(C)(C)C2)c1C#N.Cl | -12.8% |
| O=C(Nc1ccccn1)c1sc2cc([N+](=O)[O-])ccc2c1Cl | 24.8% |
| O=[N+]([O-])c1ccc(N/N=C/c2cccnc2)cc1 | 1.93% |
| COCCN(C(=O)Cn1nnc2ccccc21)C(C(=O)NC1CCCC1)c1cc(OC)ccc1OC (stereo not drawn) | 1.8% |
| Cc1c(N/N=C(\C#N)C(=O)c2ccc(Cl)cc2)c(=O)n(-c2ccccc2)n1C | 0.112% |
| O=C(Nc1ccc2c(c1)OCCO2)C1CCCN1C(=O)Nc1ccc(F)cc1 (stereo not drawn) | -3.21% |
| CCCCN(Cc1cccs1)S(=O)(=O)c1ccc(-c2ccc(=O)[nH]n2)s1 | -3.4% |
| Cc1nonc1CC(=O)NC1CC(C)(C)Cc2c1cnn2-c1ccc(F)cc1 (stereo not drawn) | -15.7% |
| O=C(COC(=O)c1cc([N+](=O)[O-])ccc1NCc1ccccc1Cl)NCC(F)(F)F | -7.81% |
| CCNC(=S)N/N=C(\C)c1ccc(Cl)s1 | 10.3% |
| CC(=O)NCCn1c(SCc2ccccc2C)nc2ccccc2c1=O | -17% |
| COc1ccc(OC)c(NC(=O)Cn2c(=O)oc3ccccc32)c1 | 15.7% |
| CCN(CC)S(=O)(=O)c1ccc(N2CCCCC2)c(NC(=O)c2ccncc2)c1 | -29.5% |
| COc1ccccc1CNC(=O)CCc1nnc2ccc(NCCCN3CCCC3=O)nn12 | 19.8% |

| Compound | hERG current change (%, negative = inhibition) at 10uM |
| --- | --- |
| Cc1ccc(S(=O)(=O)N(C)C)cc1NC(=S)Nc1ccc2cn[nH]c2c1 | -32.3% |
| COc1ccc(OCc2nnc(SCC(=O)NC3CC3)n2C)cc1 | 6.89% |
| COc1ccc(CCN(C)C(=O)COc2ccc(N(C)S(=O)(=O)c3ccc(C)cc3)cc2)cc1OC | -38.7% |
| CCOC(=O)N1CCC(N2C(=O)c3ccccc3C2Nc2ccc3c(C)cc(=O)oc3c2)CC1 (stereo not drawn) | -63.8% |
| C=CCc1cccc2cc(C(=O)NC3=C(C#N)CCC3)c(=O)oc12 | 0.713% |
| Cc1ccc2occ(C(=O)c3ccco3)c(=O)c2c1 | -4.53% |
| Cc1cc(C(=O)N/N=C/c2ccc3c(c2)OCO3)c(C)o1 | 13.8% |
| OCC1(Cc2ccccc2)CCCN(C2CCCC2)C1 (stereo not drawn) | -8.01% |
| CN1C(=O)C(c2ccccc2)C(=O)N(C)C1=O | 13.6% |
| CC(NC(=O)c1ccc(-c2ccccc2)cc1)C(c1ccccc1)N1CCOCC1 (stereo not drawn) | -20.3% |
| CCC(C)/C=C/C1=CC2=C(Cl)C(=O)C3(C)OC(=O)C(C(=O)C(C)C(C)O)C3C2=CO1 (stereo not drawn) | 2.49% |
| Cc1ccc(C(N)=S)c(C)c1 | 20.2% |
| CCc1ccc2[nH]c3nc(SCc4nnc(-c5ccccc5)o4)nnc3c2c1 | 0.983% |
| Cc1ccc2nc(SCC(=O)NCc3ccc4c(c3)OCO4)nc(=O)n2c1 | -9.83% |
| CCOC(=O)c1c(C)n(CCOC)c2ccc(O)cc12 | 12.9% |
| CCOC(=O)CN(C(=O)CSc1nnc(C)n1-c1ccccc1)c1cccc([N+](=O)[O-])c1 | -19% |
| O=C(COC(=O)c1c2c(nc3ccccc13)/C(=C\c1cccs1)CCC2)Nc1ccccc1Cl | 12.5% |
| O=C(c1nn(-c2ccccc2)c(=O)c2ccccc12)N1CCN(c2ncccn2)CC1 | 4.54% |
| CC(C)Cc1ccc(C(C)C(=O)Nc2nccs2)cc1 (stereo not drawn) | -1.33% |
| CC(=O)N1CCN(S(=O)(=O)c2cccc(C(=O)Nc3ccccc3N3CCCC3)c2)CC1 | -1.44% |
| Cc1ccc(S(=O)(=O)N2CCN(C(=O)c3ccccc3Cc3ccccc3)CC2)c(C)c1 | 4.42% |
| CCCCN(C(=O)c1cccc(S(=O)(=O)N2CCCC2)c1)c1c(N)n(CCC)c(=O)[nH]c1=O | 4.89% |

| Compound | hERG current change (%, negative = inhibition) at 10uM |
| --- | --- |
| CC1Nc2ccccc2C(=O)N1NS(C)(=O)=O (stereo not drawn) | 19.2% |
| CCc1nnc(N2C(=O)c3ccc(Oc4ccc([N+](=O)[O-])cc4)cc3C2=O)s1 | -22.5% |
| COc1ccccc1NC(=O)CNC(=O)Cn1cnc2sc(C)c(C)c2c1=O | 28.1% |
| Cc1ccc(NC(=O)CN(C)C(=O)c2cc3ccccc3o2)cc1 | 12.5% |
| CCC(=O)Nc1nc2ccccc2n1Cc1ccccc1Cl | 15.6% |
| COC(=O)c1cccc(NS(C)(=O)=O)c1C | 8.68% |
| Cc1nc(CS(=O)c2ccc(Cl)cc2)cc(NCc2ccc(Cl)cc2Cl)n1 (stereo not drawn) | -20% |
| O=C(CN1CCC(O)(c2ccccc2F)CC1)NCCc1c[nH]c2ccccc12 | -4.28% |
| Cc1cc2c(cc1S(=O)(=O)CCC(=O)NCc1ccccc1)OCC(=O)N2 | -4.34% |
| CC(=O)Nc1ccccc1C(=O)C(=O)Nc1ccc(C(=O)NCC2CCCO2)cc1 (stereo not drawn) | 29.2% |
| O=C(NNC1=NS(=O)(=O)c2ccccc21)c1cccc([N+](=O)[O-])c1 | 15% |
| Cc1oc(-c2cccs2)[n+]([O-])c1C.Cl | -3.68% |
| Cn1nc(C(=O)N2CCN(c3ccccc3F)CC2)c2c1-c1ccccc1S(=O)(=O)C2 | -21.2% |
| CC1CN(C(=O)c2ccc(NS(=O)(=O)c3ccc(F)c(F)c3)cc2)CC(C)O1 (stereo not drawn) | -3.83% |
| Cc1ccc(Cl)cc1NC(=O)CN1CCN(C(=O)C2CCCO2)CC1 (stereo not drawn) | -29.8% |
| COc1ccc(NC(=O)c2ccc(NC(=O)CN(C)CC(=O)Nc3c(C)cccc3C)cc2)cc1 | 6.59% |
| CC(C)(C)c1ccc(C(=O)NCC(=O)OCC(=O)NC(=O)NC2CCCC2)cc1 | -22.6% |
| Cc1ccc(CC2(O)CC(C)N(C)CC2C)c(C)c1 (stereo not drawn) | -0.00482% |
| O=C(/C=C\c1ccc2c(c1)OCO2)Nc1c2c(nn1-c1ccc(Cl)cc1)CSC2 | 5.12% |
| CCOC(=O)c1sc2nc(N3CCOCC3)c3c(c2c1N)CCN(Cc1ccccc1)C3 | -11.4% |
| CC1Cc2ccccc2N1C(=O)CSc1nnnn1C (stereo not drawn) | -5.61% |
| CCn1cc(Br)c(C(=O)NCc2ccco2)n1 | 16% |

| Compound | hERG current change (%, negative = inhibition) at 10uM |
| --- | --- |
| O=C(NC(=O)N1CCCc2ccccc21)c1ccccc1 | 1.37% |
| C=CCNC(=O)c1cnn(-c2ccccc2)c1-c1ccccc1 | 10.4% |
| CC1=C(C(=O)NC(C)c2ccc3c(c2)OCCO3)C2(CCC(C)CC2)OC1=O (stereo not drawn) | 0.419% |
| CCOc1ccc(NC(=O)Nc2ccc3nccnc3c2)cc1 | 0.442% |
| COc1ccc(-c2csc(N)n2)cc1F | 28% |
| CC(C)(C)N1C(=O)c2ccc(C(=O)NCc3ccco3)cc2C1=O | -5.45% |
| COc1ccc(-n2nnc3c(SCC(=O)NCC4CCCO4)ncnc32)cc1 (stereo not drawn) | -8.74% |
| O=C(Nc1nnc(SCC(=O)N2CCCCC2)s1)C1CCCCC1 | 10.8% |
| CC(=O)N(C)c1ccc(NC(=O)c2ccccc2C(=O)O)cc1 | -0.347% |
| CCN=C1SC(C(=O)Nc2cc(Cl)cc(Cl)c2)CC(=O)N1CC (stereo not drawn) | 23.5% |
| CCOC(=O)C1=C(c2ccccc2)N2CCS(=O)(=O)N=C2S1 | -7.75% |
| COc1cccc(C2/C(=C(/O)c3ccc4c(c3)CC(C)O4)C(=O)C(=O)N2CC2CCCO2)c1 (stereo not drawn) | 11.8% |
| O=c1n(-c2ccccc2)c(=O)n2n1CC(O)C2 | 9.87% |
| CC1=C(C(=O)OCc2ccccc2)C(c2ccc(N(C)C)cc2)NC(=O)N1 (stereo not drawn) | 12.3% |
| CCN(CC(=O)NCc1ccc(Cl)cc1)C(=O)CCc1ccccc1 | -58.7% |
| C/C(CC(=O)Nc1cc(Cl)ccc1C)=N\NC(N)=O | 10.7% |
| Cc1ccc(C(=O)Nc2ccc3c(c2)OCO3)cc1 | -4.02% |
| CCc1ccc(C(=O)NNc2ccc(F)cc2F)cc1 | 10.8% |
| COc1cc(C(=O)NCc2ccccc2)ccc1OC(F)F | -14.7% |
| O=C(NCc1ccc(C(=O)N2CCC3(CC2)OCCO3)cc1)c1ccc2c(c1)OCO2 | 1.98% |
| CCN(CCC#N)c1ccc(N2C(=O)CCCC2=O)cc1[N+](=O)[O-] | 24.9% |

Source: publication PMC4336329 (PLoS ONE, 2015)
